Read counts are not given, so values of variants with three or more changes are uncertain.
B1: LINE1-full (parent)
chain: UACGUAGGUGGUUUUCCCCUGAUAGUGCUAAGGGGGCCUGGAAGUUUGGACUGGGCAGAGCUCAACACAGCGUGGCAAAGUGGCUGUGGCUAGACUGCCUCUCUGGAUUCCUCGUCACUCAGCAGGGCAUCUCUGAGAGAAAUGCC

Variants of: B1
Test: self-cleavage, relative activity (ratio to wild type); higher = more cleavage; in vitro, sequencing; the parent is a self-cleaving ribozyme

| Variant | self-cleavage |
| --- | --- |
| UACGUAGGUGGUUUUCCCCUGAUGGUGCUAAGGGGGCCUGGUAGUAUGGACUGGGCAGAGCUCAACACAGCGUGGCAAAGUGGCUGUGGUUAGACUGCCUCUCUGGAUUCCUCGUCACUCAGCAGGGCAUCUCUGAGAGAAAUGCC [A24G A42U U46A C90U] | 0.06 |
| UACGUAGGUGGUUUUCCCCUGAUGGUGCUAAGGGGGCCUGGAAGUUUGGACUGGGCAGAGCUCAACACAGCGUGGCGAAGUGGCUGUGGCUAGACUGCCUCUCUGGAUUCCUCGUCACUCAGCAGGGCAUCUCUGAGAGGAAUGCC [A24G A77G A140G] | 1.08 |
| UACGUAGGUGGUUUUCCCCUGAUGGUGCUAAGGGGGCCUGGAAGUUUGGACUGGGCUGAGCUCAACGCAGCGUGGCAAAGUGGCUGUGGCUAGACUGCCUCUCUGGAUACCUCGUCACUCAGCAGGGCAUCUCAGAGAGAAAUGCC [A24G A57U A67G U109A U134A] | 0 |
| UACGUAGGUGGUUUUCCCCUGAUGGUGCUAAGGGGGCCUGGAAGUUUGGACUGGGCAGAGCUCAACACAGCGUGGCAAUGUGGCUGUGGCUAGACUGCCUCUCUGGAUUCCUCAUCACUCGGCAGGGCAUCUCUGAGAGAAAUGCC [A24G A79U G114A A121G] | 1.35 |
| UACGUAGGUGGUUUUCCCCUGAUGGUGCUAAGGGGGCCUGGAAGUUUGGACUGGGCAGAGCUCAACACAGCGUGGCAAAGUGGCUGUGGCUAGGCUGCCUCUCUGGAUUCCUCGUCACUCAGCAGGGCAUCUCUGGGGGAAAUGCC [A24G A94G A136G A138G] | 0.71 |
| UACGUAGGUGGUUUUCCCCUGAUGAUGCUAAGGGGGCCUGGAAGUUUGGACUGGGCAGAGCUCAACAAAGCGUGGCAAAGUGGCUGUGGCUAGACAGCCUCUCUGGAUUCCUCGUCACUCAGCAGGGCAUCUCUGAGAGAAGUGCC [A24G G25A C68A U96A A142G] | 0.26 |
| UACGUAGGUGGUUUUCCCCUGAUGGUGCUAAGGGGGCCUGGAAGUUUGGACUGGGCGGAGCUCAACACAGCGUAGCAAAGUGGCUGUGGCUAGACUGCCUCUCUGGAUUCCUCGUCACUCAGCAGGGCAUCCCUGAGAGAAAUGCC [A24G A57G G74A U132C] | 1.08 |
| UACGUAGGUGGUUUUCCCCUGAUGGUGCUGAGGGGGCCUGGAAGUUUGGACAGGGCAGAGCUCAACACAGCGUGGCAAAGUGGCUGUGGCUAGACUGCCUCUCUGGAUUCCUCGUCACUCAGCAGGGCAUCUCUGAGAGAAGUGCC [A24G A30G U52A A142G] | 1.76 |
| UACGUAGGUGGUUUUCCCCUGAUGGUGCUAAGGGGGCCUGGAGGUUUGGACUGGGCAGAGCUCAACACAGCGUGGCAAAGUGGCUGUGGCUAGACCGCCUCUCUGGAUUCCUCGUCACUCAGCAGGGCAUAUCUGAGAGAAAUGCC [A24G A43G U96C C131A] | 0.43 |
| UACGUAGGUGGUUUUCCCCUGAUGGUGCUAAGGGGGCCUGGAAGUUUGGACUGGGCAGAGCUCAACACAGCGUGGCAAAGUGGCUGUGGCUAGACUGCCUCUCUGGAUUCCUCGUCCCUCAGCAGGGCAUCUCGGAGAGAAAUGCC [A24G A117C U134G] | 1.63 |
| UACGUAGGUGGUUUUCCCCUGAUGGUGCUAAGGGGGCCUGGAGGUUUGGAUUGGGCAGAGCUCAACGCAGCGUGGCAAAGUGACUGUGGCUAGACUGCCUCUCUGGAUUCCUCGUCACUCAGCAGGGCAUCUCUGGGAGAAAUGCC [A24G A43G C51U A67G G83A A136G] | 0.3 |
| UACGUAGGUGGUUUUCCCCUGAUGGUGCUUAGGGGGCCUGGAAGUUUGUACUGGGCAGAGCUCAACACAGCGUGGCAAAGUGGCUGUGGCUAGACUGCCUCUCUGGAUUCCUCGUCACUCAGCAGGGCAUCUCUGGGAGAGAUGCC [A24G A30U G49U A136G A141G] | 1.41 |
| UACGUAGGUGGUUUUCCCCUGAUGGUGCUAAGGGGGCCUGGUAGUUUGGACUGGGCAGAGCUCUACACAGCGUGGCAAAGUGGCUGUGGCCAGACUGCCUCUCUGGAUUCCUCAUCACUCAGCAGGGCAUCUCUGAGAGAAAUGCC [A24G A42U A64U U91C G114A] | 0.19 |
| UACGUAGGUGGUUUUCCCCUGAUGGUGCUAAGGGGGCCUGGAAGUUUGGACUGGGCAGAGCUCAACACAGCGUGGCAAAGUGGCUGUGGCUAGACUGCCUCUCUGGAUUCCUCGUCACUCAGCUGGGCUUCUCUGAGAGAAAAGCC [A24G A124U A129U U143A] | 1.11 |
| UACGUAGGUGGUUUUCCCCUGAUGGUGCUUAGGGGGCCUGGAAGUUUGGACUGGGCAGAGCUCAACACAGCGUGGCAAAGCGGCUGUGGCUAGACUGCCUCUCUGGAUUCCUCGUCACUCAGCAGGGCAUCUCUGAGAGGAAUGCC [A24G A30U U81C A140G] | 1.08 |
| UACGUAGGUGGUUUUCCCCUGAUGGUGCUAAUGGGGCCUGGAAGUUUGGACUGGGCAGAGCUCAACACAGCGUGGCUAAGUGGCUGUGGCUAGACUGCCUCUCUGGAUUCCUCGUCACUCAGCAGGGCAUCUCUGAGAGAAAUGCC [A24G G32U A77U] | 0.71 |
| UACGUAGGUGGUUUUCCCCUGAUGGUGCUAAGGGGGCCUGGAAGUUUGGACUGGGCAGAGCUCAACACAGCGUGGCAAAGUGGCUGUGGCUAGACUGCCUCUCUGGAUUCCUCGUCACUCAGCUGGGCAUCUCAGAGAGAAAUGCC [A24G A124U U134A] | 1.78 |
| UACGUAGGUGGUUUUCCCCUGAUGGUGCUAAGGGGGCCUGGAAGUUUGGACUGGGCUGAGCUCAACACAGCAUGGCAAAGUGGCUGUGGCUAGACUGCCUCUCUGGAUUCCUCGUCACUCAGCAGGGCAUCUCUGAGAGAAAUGCC [A24G A57U G72A] | 0.24 |
| UACGUAGGUGGUUUUCCCCUGAUGGUGCUAAGGGGGCCUGGGAGUUUGGACUGGGCAGAGCUCAACACAGCGUGGCAAAGUGGCUGUGGCUAGACUGCCUCUCUGGACUCCUCGUCACUCAGCAGGGCAUCUCUGAGAGAAAUGCC [A24G A42G U108C] | 1.18 |
| UACGUAGGUGGUUUUCCCCUGAUCGUGCUAAGGGGGCCUGGAAGUUUGGACUGGGCAGAGCUCAACACAGCGUGGCAUAGUGGCUGUCGCUAGACUGCCUCUCAGGAUUCCUCGUCACUCAGCAGGGCAUCUCUGAGAGAAAUGCC [A24C A78U G88C U104A] | 0.11 |

| Variant | self-cleavage |
| --- | --- |
| UACGUAGGUGGUUUUCCCCUGAUGGUGCUAAGGGGGCCUGGAGGUUUGGACUGGGCAGAGCUCAACACAGCGUGGCAGAGUGGCUGUGGCUAGACUGCCUCUCUGGAUUCCUCGUCACUCAGCAGGGCACCUCUGAGAGAAAUGCC [A24G A43G A78G U130C] | 1.84 |
| UACGUAGGUGGUUUUCCCCUGAUGGUGCUAAGGGGGCCUGGAAGUUUGGACUGGGCAGAGCUCAACACAGCGUGGCAAAGUGGCUGUGGCUUGACUGCCUCUCUGGAUUCCUCGUCACACAGCAGGGCAUCUCUGAGAGAAAUGCC [A24G A92U U119A] | 0.53 |
| UACGUAGGUGGUUUUCCCCUGAUGGUGCUAAGGGGGCCUGGAAGUUUGGACUGGGCAGAGCUCAGCACAGCGUGGCAAAGUGGCUGUGGCUAGACUGCCUCUCCGGAUUCCUCGUCACUCAGCAGGGCAUCUCUGAGAGAAAUGCC [A24G A65G U104C] | 0 |
| UACGUAGGUGGUUUUCCCCUGAUGGUGCUAAGGGGGCCUGGAAGUUUGGACUGGGCAGAGCUCAACACAGCGUGGCAAAGUGGCUGUGGCUAGACUGCCUCUCUGGAUUCCUCGUCACUCAGCGGGGCAUCUCUGAGAGAAAUACC [A24G A124G G144A] | 1.39 |
| UACGUAGGUGGUUUUCCCCUGAUGGUGCUAAGGGGGCCUGGAAGUUUGGACUGGGCAGAGCUCAACACAGCGUGGCACAGUGGCCGUGGCUAGACUGCCUCUCUGGAUUCCUCGUCACUCAGCAGGGCAUCUCUGAGAGAAAUGCC [A24G A78C U85C] | 0 |
| UACGUAGGUGGUUUUCCCCUGAUCGUGCUAAGGGGGCCUGGAAGUUUGGACUGGGCAGAGCUCAACACAGCGUGGCAAAGUGGCUGUGGGUAGACUGCCUCUCUGGAUUCCUCGUCACUCAGCAGGGCAUCACUGAGAGAAAUGCC [A24C C90G U132A] | 0.09 |
| UACGUAGGUGGUUUUCCCCUGAUGGUGCUAAGGGGGCCUGGAAGUUUGGACUGGGCAGAGCUCAGCACAGCGUGGCAAAGUAGCUGUGGCUAGACUGCCUCUCUGGAUUCCUCGUCACUCAGCAGGGCAUCUCUGAGAGAAAUGCC [A24G A65G G82A] | 0.06 |
| UACGUAGGUGGUUUUCCCCUGAUGGUGCUAAGGGGGCCUGGAAGUUUGGACUGGGCAGAGCUCAACUCAGCGUGGCAAAGUGGCUGUGGCUAGACUGCCUCUCAGGAUUCCUCGUCACUCAGCAGGGCAUCUCUGAGAGAAAUGCC [A24G A67U U104A] | 0.2 |
| UACGUAGGUGGUUUUCCCCUGAUGGUGCUAAGGGGGCCUGGUAGUUUGGACUGGGCAGAGCUCAACACAGCGUGGCAAAGAGGCUGUGGCUAGACUGCCUCUCUGGAUUCCUCGUCACUCAGCAGGGCAUCUCUGAGAGAAAUGCC [A24G A42U U81A] | 0.94 |
| UACGUAGGUGGUUUUCCCCUGAUGGUGCUAAGGGGGGCUGGAAGUUUGGACUGGGCAGAGCUCAACACAGCGUGGCAAAGUGGCUGUGGCUUGACUGCCUCUCUGGAUUCCCCGUCACUCGGCAGGGCAUCUCAGAGAGAAAUGCC [A24G C37G A92U U112C A121G U134A] | 0 |
| UACGUAGGUGGUUUUCCCCUGAUGGUGCUAAGGGGGCCUGGAAGUUUGGACUGGGCGGAGCUCAACACAGCGUGGCAAAGAGGCUGUGGCUAGACUGCCUCUCUGGAUUCCUCGUCACUCAGCAGGGCAUCUCUGAGAGAAAUGCC [A24G A57G U81A] | 1.48 |
| UACGUAGGUGGUUUUCCCCUGAUGGUGCUAAGGGGGCCUGGAAGUUUGGACUGGGCAGAGCUCAACACAGCGUGGCUAAGUGGCUGUGGCUAGACUGCCUCUCUGGAUUCCUCGUCACUCAGCAGGGCAUCCCUGAGAGAAAUGCC [A24G A77U U132C] | 1.42 |
| UACGUAGGUGGUUUUCCCCUGAUGGUGCUAAGGGGGCUUGGAAGCUCGGACUGGGCAGAGCUCAACACAGCGUGGCGAAGUGGCUGUGGCUAGACUGCCUCUCUGGAUUCCUCGUCACUCAGCAGGGCAUCUCUGAGAGAAAUGCC [A24G C38U U45C U47C A77G] | 1.84 |
| UACGUAGGUGGUUUUCCCCUGAUGGUGCUAAGGGGGCCUGGAAGUUUGGACUGGGCAGAGCUCAACACAGCGUGGCAUAGUGGCUGUGGCUAGACUGCCUCUCUGGAUUCCUCGACACUCAGCAGGGCAUCUCUGAGAGAAAUGCC [A24G A78U U115A] | 1.72 |
| UACGUAGGUGGUUUUCCCCUGAUCGUGCUAAGGGGGGCUGGAAGUUUGGACUGGGCAGAGCUCAACACAGCGUGGCAAAGUGGCUGUGGCUAGACUGCCUCUCCGGAUUCCUCGUCACUCAGCAGGGCAUCUCUGAGAGAAGUGCC [A24C C37G U104C A142G] | 1.65 |
| UACGUAGGUGGUUUUCCCCUGAUGGUGCUAAGGGGGCCUGGAAGUUUGGACUGGGCGGAGCUCAACGCAGCGUGGCAAAGUGGCUGUGGCUAGACUGCCUCUCUGGAUUCCUCGUCACUCAGCAGGGCAUCUCUGAGAGAAAUGCC [A24G A57G A67G] | 0 |
| UACGUAGGUGGUUUUCCCCUGAUGGUGCUAAGGGGGCCUGGAAGUUUGGACUGGGCAGAGCUCAACACAGCGUGGCAAAGUGGCUGUGGCUAGACUGCCUCUCUGGAUUCCUCGUCACUCAGCGGGGCAUCUCUGAGAGGAAUGCC [A24G A124G A140G] | 0.42 |
| UACGUAGGUGGUUUUCCCCUGAUGGUGCUAAGGGGGCCUGGAAGUUUGGACUGGGCAGAGCUCAACUCAGCGUGGCAAAGUGGCUGUGGCUAGACUGCCUCUCUGGAUUCCUCGUCACCCAGCAGGGCAUCUCUGAGAGAAAUGCC [A24G A67U U119C] | 0.26 |
| UACGUAGGUGGUUUUCCCCUGAUGGUGCUAAGGGGGCCUGGAAGUUUGGACUGGGCAGAGCUCAACACAGCGUGGCAAAGUGGCUGUGGCUAGACUGCCUCUCUGGGUUCCUCGUCACUCAUCAGGGCAUCUCUGAGAGAAAUGCC [A24G A107G G122U] | 1.48 |
